Data: the RNAGym collection of RNA variant scans (doi:10.7554/elife.90254)
The source gives no read counts; variants with many changes may rest on few reads.

B1: LINE1-full (parent)
chain: UACGUAGGUGGUUUUCCCCUGAUAGUGCUAAGGGGGCCUGGAAGUUUGGACUGGGCAGAGCUCAACACAGCGUGGCAAAGUGGCUGUGGCUAGACUGCCUCUCUGGAUUCCUCGUCACUCAGCAGGGCAUCUCUGAGAGAAAUGCC

Variants of: B1
Assay: self-cleavage, relative activity (ratio to wild type); higher = more cleavage; in vitro, sequencing; the parent is a self-cleaving ribozyme

| Variant | self-cleavage |
| --- | --- |
| U9C U39C A43G C113A A124G | 0.58 |
| U1C U9C U20C | 1.24 |
| U13C U20C G86A U100A A121G | 0.12 |
| U102C U109C A141G | 2.21 |
| A30G A43G A129G | 1.23 |
| A30G G74U U96G | 0 |
| U13C G36C A141G | 1.33 |
| A64U U109A U115C | 0.21 |
| A22G A59G A78G U112C | 0 |
| U96A U102C A140G | 0.08 |
| U5C U45C G49C A50G A78G | 1.84 |
| A6U C19U G34A U45C | 0.82 |
| U5C U9G A64G | 0.71 |
| U9A A22G A64U A124U | 0.55 |
| G54A U109C A117G | 0.27 |
| U104A U115G A141G | 2.47 |
| U20C G35A A124G | 0.7 |
| A65G C103A U134C A138G | 0.09 |
| U5A A92G C98A | 0.26 |
| U15A A69G U102A U109G | 1.31 |
| U20C U62A U109G A129G | 0.09 |
| U62C A77G U81C A94U | 0 |
| G11A A69G G75A A94G U100C A141G | 0 |
| A2G U13C U29A A79G | 0 |

| Variant | self-cleavage |
| --- | --- |
| A50U A67G U91C A124U | 0 |
| U102C U115A U132A | 1.31 |
| U73C U109A A117C | 2.11 |
| G21U A24G U85A | 0.08 |
| G27A C38U A64C A121G | 0.15 |
| G7A A124G A129G | 1.12 |
| U14C U46A A50G U96A A124G C131U U134A A136U | 0.1 |
| U14C A50G U52A U87A | 0.28 |
| A30G G53A U62C U130C | 0.06 |
| U14A U100C A142G | 1.39 |
| A30G U47C U100A | 2.04 |
| U45A U62A U104A | 0.04 |
| U47A A117U A136U | 1.09 |
| U52C A64U U81A U85C U100C U134C | 0.54 |
| U5C A42G U130C | 0.77 |
| G10A U85C U132A | 0 |
| G35A A50G A79U A121G | 1.05 |
| A22U A65C U100C | 0.03 |
| G35A U87A U119C | 0.06 |
| U5A A30U U112C | 0.91 |
| G41U U45G A78G U130C A138G | 0.98 |
| A30G U134G A142G | 1.03 |
| A30U U47G U100C U134C | 1.75 |
| A24G U26A A57U C76U G106C U109A | 0 |

| Variant | self-cleavage |
| --- | --- |
| G33U A64G U115C A124U | 0.11 |
| A77U A79U A107G A140U | 2.61 |
| A69G U109C C113A A136U | 0.12 |
| U85C A94G U132A | 0 |
| U15C A24G U85A | 0.32 |
| A2U A65U U81A C98U U100C | 0.13 |
| U23C G54A A69G U104G A138G | 0.13 |
| G36A A94G U96A U130A | 0.09 |
| U23G G34U U119C | 1.06 |
| A43G A65G U85A | 0.1 |
| A22G U26C A69U | 0 |
| G53A A140G G144A | 1.24 |
| A79U U109C A141G | 1.88 |
| U12G A69G U134A | 0.16 |
| U45C U102C C103A | 2.3 |
| A59G G60A A94G A117U A141G U143C | 0.07 |
| U13C A24G A69G A92U | 0.22 |
| A2G A77G A141G | 0.8 |
| G72A U91C A94G U104C A136G | 0.16 |
| U12C A117G A121U A140G A141G | 2.34 |
| A22G A64C U104A U112A | 0.55 |
| G60A A79G A117G C123U A129U | 0.05 |
| U23A U47G A65G U132C | 0.17 |
| U1C U73A U81C U115C | 1.53 |

| Variant | self-cleavage |
| --- | --- |
| A42G U100A A107G | 1.05 |
| A57G C71U U96A | 0.04 |
| U13C U73C A78G G88U | 0.07 |
| A6U U9A U39A | 0.67 |
| U45C U91A A141G | 0.61 |
| A24G U73A C103U | 0.87 |
| U62C U96A U108A | 0.02 |
| U20C A69U U81C G93A G126A | 0.07 |
| G49U U73C A121G | 1.13 |
| U14A C28A G144U | 0.72 |
| A69U A121U A140G | 0.04 |
| U13C U45C U47A A50G | 1.02 |
| U39C U130C U143C | 1.72 |
| U13A A30U A42G U115A | 1.07 |
| A79G G86A U102C A136U | 0.13 |
| A24G U45A U47C | 0.8 |
| U46A A69G A94G U130C | 0 |
| U45C U85A A138G | 0 |
| U26C A30U U81A | 2.14 |
| U13C C17U U20A U100C | 0 |
| A30G U62A A136G | 0.28 |
| U45C U104A U112G A140G | 2.76 |
| G34U A59G A64G A121U | 0.1 |
| U14C U47G U108C | 1.53 |

| Variant | self-cleavage |
| --- | --- |
| U85C U115C A124U | 0.31 |
| U81C U85C U100C | 0 |
| U9C U81C A117U A129C | 1.47 |
| U23C G33U U104A A117U | 1.11 |
| A31U U119G G122U | 0.85 |
| U13C U47A U81C U112C | 0.55 |
| G33A U46C A65G U130C | 0.1 |
| U20C A30G U47C A121U | 1.13 |
| U13C U23C U46A A64G | 0.47 |
| G4C U13C U39C U87A | 0.31 |
| A57G U81C U119A | 1.41 |
| U9A U73C C84U U134C | 0.33 |
| A43G C84U U87C | 0.12 |
| A30G A77U U81G A124G | 1.56 |
| U20C U96A A138U A140U | 0.14 |
| U62A A69U A79G U132C A138G | 0.06 |
| G35C A69G A92G | 0.2 |
| U20C C51A A69G | 0.42 |
| A30G C76U A79G A140G A141G | 2.18 |
| A64G U100C C131A | 0.37 |
| U12C A65C C118A A124G | 0.06 |
| A50G A138U C145U | 0.73 |
| A65C U85A C128U | 0.09 |
| U13C A77G A78U A79U | 1.87 |

| Variant | self-cleavage |
| --- | --- |
| U9A U15C U96C C131U U143C | 0.57 |
| U20C A92G U134C | 0 |
| U15C A59G U104A | 0.11 |
| U15C A24G A140U | 1.04 |
| A24G C38U A79G | 0.73 |
| A64G A117G A129G | 0 |
| U20C A69G A129U A136G | 1.08 |
| U39C U81A A140G U143A | 1.72 |
| U39A U115A U119A A121G | 1.23 |
| U62C U73C C90U U112C | 0 |
| A2G U87C A117G | 0.61 |
| U87A U102C U112C | 0.06 |
| U13C A117G A124U | 2.19 |
| C76U U102C A121C | 2.63 |
| U26C G88U A142G | 0.08 |
| A42U U81C A124G | 0.62 |
| C18U G55A A92G | 0.06 |
| U23C A65U A67U U102G | 0.15 |
| G54A A59G A77U A124G | 0 |
| U46C U108A U130C | 1.06 |
| A59G A65G C128U | 0.08 |
| G40A U46A C61U | 0.03 |
| U15C U20A A107G | 0.95 |
| U13A A24G A78U | 0 |

| Variant | self-cleavage |
| --- | --- |
| A59U U73A U102A | 0.97 |
| G11A G36A A43U A64U A124G | 0.15 |
| U13C C38U U104A A136G | 1.14 |
| A6G A43U A94U | 0.39 |
| U15C A67G U87C | 1.31 |
| U13A U14C G105U U109C | 0.79 |
| U23C U26C A59G G75A U85C | 0 |
| G10A U20A U26C | 0.56 |
| U20C C28A U102C | 1.64 |
| U5C C38U A77G | 0.33 |
| A6G U47A U52C | 1.53 |
| U12G U14C G89A A94G | 0.1 |
| A6G U39C A136G | 0.59 |
| U9C U73A U112C | 1.56 |
| A79G U109C C111U | 0.71 |
| U5C U45C A65U U112C A140G | 0.35 |
| C37U A92G G114A | 0.02 |
| U73C U132C A142G | 0.77 |
| U9C A31G U81C | 0 |
| A78G A79G U96C U112G C113U | 0 |
| U1C A50U U104G | 0 |
| G82A U112A A117G | 2.34 |
| A30C U47A U115A | 1.57 |
